The values below come from PubChem BioAssay AID488969 (Vanderbilt High Throughput Screening Facility, 2010).

The full ranking holds about 110,000 compounds; the median of “z-score” is about -0.1, and the highest 2% start at about 2. The list shows a part of the results.

The target of this experiment is Metabotropic glutamate receptor 8 (Rattus norvegicus) (UniProt P70579). The experiment is described as follows: mGluR8 Gi/Go-coupled signaling modulation – cell-based, rat, thallium flux, HTS, primary screen (AID 488969). The following applies: HEK293 rat mGluR8, GIRK (G protein-gated inwardly rectifying potassium channel) thallium flux, FluoZin2; at 10 µM; stronger effect = higher value; submaximal glutamate (EC20) added with thallium.
Sequence of UniProt P70579 (P70579 whole entry, looked up): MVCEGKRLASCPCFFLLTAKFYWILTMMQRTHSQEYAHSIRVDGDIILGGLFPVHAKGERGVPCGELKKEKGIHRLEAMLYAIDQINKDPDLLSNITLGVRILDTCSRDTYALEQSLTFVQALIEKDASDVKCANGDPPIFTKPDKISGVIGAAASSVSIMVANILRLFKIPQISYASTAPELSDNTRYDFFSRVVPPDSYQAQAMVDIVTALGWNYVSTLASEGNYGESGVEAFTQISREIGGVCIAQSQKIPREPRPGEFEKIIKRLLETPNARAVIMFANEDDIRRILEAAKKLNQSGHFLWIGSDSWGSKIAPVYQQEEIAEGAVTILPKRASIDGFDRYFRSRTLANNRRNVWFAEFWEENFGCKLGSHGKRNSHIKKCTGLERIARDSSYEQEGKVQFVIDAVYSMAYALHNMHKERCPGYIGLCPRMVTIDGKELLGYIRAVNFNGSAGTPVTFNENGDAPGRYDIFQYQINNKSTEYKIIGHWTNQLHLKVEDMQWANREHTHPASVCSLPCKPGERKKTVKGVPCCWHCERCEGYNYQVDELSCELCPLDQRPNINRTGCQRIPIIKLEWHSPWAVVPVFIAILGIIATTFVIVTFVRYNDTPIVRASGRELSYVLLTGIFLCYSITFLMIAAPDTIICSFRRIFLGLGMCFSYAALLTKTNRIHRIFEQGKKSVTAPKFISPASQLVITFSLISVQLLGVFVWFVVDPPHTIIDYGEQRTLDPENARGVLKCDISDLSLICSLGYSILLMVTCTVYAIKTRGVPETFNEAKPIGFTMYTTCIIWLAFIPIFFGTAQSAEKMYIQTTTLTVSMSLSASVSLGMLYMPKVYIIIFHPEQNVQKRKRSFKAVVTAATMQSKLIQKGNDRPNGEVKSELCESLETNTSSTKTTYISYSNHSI
With `NC(=O)C1(N2CCCCC2)CCN(c2ccc3nnc(-c4ccccc4)n3n2)CC1`, the z-score is -0.501.
With `O=C(/C=C/c1ccccc1)N1c2ccccc2Sc2ccc(C(F)(F)F)cc21`, the z-score is -0.0208.
As for `Cc1ccc(S(=O)(=O)N=Nc2c(O)[nH]c3ccccc23)cc1C`, the figure is 0.107.
As for `COc1ccc(CCn2c(C)ccc2C)cc1OC`, the figure is -0.0502.
With `Cc1ccc2cc(C3CC(c4ccco4)=NN3S(=O)(=O)c3ccccc3)c(Cl)nc2c1` (stereo unspecified), the z-score was determined as 0.136.
As for `Cc1ccc(C)c(NC(=O)c2ccc(OC(=O)c3ccco3)cc2)c1`, the figure is 0.873; as for `Cn1c(CN2CCOCC2)nnc1SCC(=O)Nc1nccs1`, -0.0781.
As to `COc1ccc(C(=O)NN2CCCCC2)cc1OC`, the z-score was -0.242.
As to `O=C(CCCCCN1C(=O)c2ccccc2C1=O)Nc1ccc(F)cc1`, the z-score is -0.0499.
Take `CCCOC(=O)C1=C(C)OC23OC(N)=C(C#N)C12C(=O)c1ccccc13` (stereo unspecified): the z-score is -2.16.
As for `Cc1[nH]c2ccccc2c1C(=O)COC(=O)c1c(-c2ccccc2)noc1C`, the figure is -0.266; as for `O=C(CCC(=O)c1cccs1)NCc1ccc(Cl)cc1`, -0.139; as for `O=C(COC(=O)C12CC3CC(CC(C3)C1)C2)NCCCc1ccccc1`, -0.0873.
On to `COc1ccc(S(=O)(=O)N(C)CC(=O)Nc2ccc3c(c2)OCCO3)cc1OC`, for which the z-score was -0.0274.
As for `O=C(NCCCN1CCCCC1)C1CCC(=O)N1CCc1ccccc1` (stereo unspecified), the figure is -0.0886.
As for `O=C(Cc1c(O)c2ccccc2[nH]c1=O)NCc1ccccc1`, the z-score was -0.314.
Compound `COCCNC(=O)C1CC(=O)N(C2CCCCC2)C1` (stereo unspecified) displayed a z-score of 0.736.
As for `CCCC1=NN(c2ccc([N+](=O)[O-])cc2)C(=O)/C1=C/N(C)C`, the figure is -2.2.
As for `CC(=O)OC1COC(N2CCc3cc(Br)c([N+](=O)[O-])cc32)C(OC(C)=O)C1OC(C)=O` (stereo unspecified), the figure is -0.0187; as for `CCc1nc(NCC2CCCO2)c2oc3ccccc3c2n1` (stereo unspecified), 0.138.
Consider `CC1(O)CC(=O)N(c2ccccc2)O1` (stereo unspecified), for which the z-score is -0.00398.
As for `CCCn1c(-c2ccc(OC)cc2)nc2c(=O)n(C)c(=O)[nH]c21`, the figure is -0.354.
As for `CCCCNC(=O)c1onc(CSc2ccccc2CC)c1C(=O)O`, the figure is -0.361.
`O=C(CSc1ccccc1C(=O)NCc1ccccc1)NC12CC3CC(CC(C3)C1)C2`: the z-score is -0.189.
With `O=c1[nH]cnc2c([N+](=O)[O-])cccc12`, the z-score was -0.108.
As for `COc1ccccc1N1CCN(C(=O)CSc2nc(-c3ccccc3)cc(=O)[nH]2)CC1`, the figure is -0.594; as for `O=C(CSc1nc2ccccc2[nH]1)N1CCN(c2ccc(F)cc2)CC1`, -0.216; as for `CC(=O)Nc1ccc(NC(=O)CSCc2cnn(-c3ccccc3)c2-n2cccc2)cc1`, -0.225.
With `C=CCNC(=O)C1CC(=O)N(c2ccc(C)cc2)C1` (stereo unspecified) the figure was 0.146.
For `Cc1cccc(NC(=O)CC2Nc3cccc4cccc(c34)NC2=O)c1` (stereo unspecified), the z-score was -0.127.
With `N#CC1=C(N)SC(N)=C(C#N)C1c1ccc([N+](=O)[O-])cc1` the figure was -0.183; with `CCOc1ccc(C(=O)N/N=C/c2cc(Cl)ccc2[N+](=O)[O-])cc1`, -0.183; with `O=C(Oc1ccc2c(=O)c(Cl)coc2c1)c1ccncc1`, -0.0163.
`Cc1ccccc1Cn1c(=N)n(CC(=O)c2ccco2)c2ccccc21` registered a z-score of 2.17.
Regarding `NNc1nc(NCc2ccccc2)nc(N2CCOCC2)n1`, the z-score was determined as 0.747.
As for `COCC(=O)N(C)c1nnc(-c2ccc([N+](=O)[O-])cc2)s1`, the figure is 0.146.
As for `CCOC(=O)COc1ccc(S(=O)(=O)NCCC2=CCCCC2)cc1`, the figure is -0.61.
With `CCC(=O)N1CCC(c2ccc(OC)cc2)=N1`, the z-score was -0.0561.
Regarding `COc1ccc(OC)c2sc(NC(=O)c3ccc(S(=O)(=O)N4CCOCC4)cc3)nc12`, the z-score was -0.091.
Regarding `[O-]/[N+](=C/c1ccc(F)cc1)c1ccc(Cl)cc1`, the z-score worked out at 0.577.
With `Cc1c(NC(=O)Cn2nc(C(=O)O)c3ccccc3c2=O)c(=O)n(-c2ccccc2)n1C` the figure was -1.03.
For the compound `CC(C)NC(=O)NC(=O)COC(=O)Cc1ccsc1`, the z-score was determined as 0.506.
With `NC(=O)c1cc(-c2ccccc2)nc(N2CCOCC2)n1` the figure was -0.411.
On to `CCOC(=O)CNC(=O)C(=O)c1c(O)[nH]c2ccccc12`, for which the z-score came to 0.0297.
Consider `O=C(NC(NC(=S)Nc1cc(Cl)ccc1Cl)C(Cl)(Cl)Cl)c1ccco1` (stereo unspecified), for which the z-score is 0.272.
Consider `CC(C)OC(=O)c1nn2c(C(F)(F)F)cc(-c3ccco3)nc2c1Cl`, for which the z-score is -0.261.
In the case of `CCOc1ccccc1N(CC(=O)NC1CCCCC1)C(=O)CNC(=O)c1ccco1`, the z-score was -1.38.
With `Cc1ccc(OCCSc2nnc(-c3ccncc3)n2C)cc1` the figure was -0.157; with `O=C(c1cccc(F)c1)N1CCN(C2CCCCC2)CC1`, -0.0609; with `O=C(CSCc1cnn(-c2ccccc2)c1-n1cccc1)NCc1ccc2c(c1)OCO2`, 0.533.
The compound `CC(C)OC(=O)/C(C#N)=C/c1ccc(-c2ccc(SC(F)F)cc2)o1` returned a z-score of 0.111.
As for `CCCn1nnnc1NCc1ccc(N2CCCC2)cc1`, the figure is -0.208; as for `O=C(CCn1cccc1)Nc1cccc(F)c1`, -0.319; as for `Cn1c(NCc2cccs2)nc2ccccc21`, 0.413.
As for `O=C1c2cccc3c([N+](=O)[O-])ccc(c23)C(=O)N1c1ccccn1`, the z-score was -0.626.
As for `CS(=O)(=O)N(CC(=O)N1CCN(Cc2ccccc2)CC1)Cc1ccccc1`, the figure is 0.0771.
As for `O=C(O)C1CCCCN1S(=O)(=O)c1ccccc1` (stereo unspecified), the figure is -0.157.
`CN1c2ccccc2N(C)C1(C)c1cccc2ccccc12`: the z-score is -0.24.
Compound `CCN=C1SC(CC(=O)Nc2ccc(N3CCOCC3)cc2)C(=O)N1CC` (stereo unspecified) came in with a z-score of 0.836.
In turn, `COc1ccc(CCN2CN(S(=O)(=O)c3ccc(OC)cc3)c3nc4ccccc4nc32)cc1` showed a z-score of 0.00814.
On to `CCCCCN1C2=NCCN2c2ccccc21`, for which the z-score is 0.394.
With `CCOC(=O)C1=C(CS(=O)(=O)c2ccccc2)NC(=O)NC1c1ccccc1OCC` (stereo unspecified) the figure was 1.31; with `CCOC(=O)CCSc1nc(C)cc(C(F)(F)F)c1C#N`, 1.25; with `Cc1ccc(C(=O)CSc2nnc(-c3cccs3)n2C)o1`, -0.505.
With `CC(=O)Nc1ccc(C(=O)Nc2ccc3c(c2)OCO3)cc1` the figure was -0.414.
In the case of `O=C(CN1C(=O)C2C3C=CC(C3)C2C1=O)NCc1ccccc1` (stereo unspecified), the z-score turned out to be 0.384.
For `COc1cc(-c2nc3c[n+](CC(=O)c4ccccc4)ccc3n2C)cc(OC)c1OC`, the z-score was -0.235.
As for `c1ccc(CN2CCN(c3nc(-c4ccccc4)nc4ccccc34)CC2)cc1`, the figure is -0.0494; as for `CCc1c(O)nc(SCC(=O)N2CCOCC2)n(-c2ccccc2)c1=O`, 0.116; as for `CCOC(=O)c1c(-c2ccccc2)oc2ccc(O)c(CN(C)C)c12`, -0.204.
`CCN1CCN(CCCNC(=O)c2cn(CCOC)c(=O)c3c2c2ccccc2n3C)CC1` registered a z-score of 0.403.
`COc1cc(/C=N/NC(=O)c2cccnc2)ccc1OS(=O)(=O)c1cc(C)ccc1C` yielded a z-score of 0.563.
As for `Cc1cccc(NS(=O)(=O)c2ccc3c(c2)OCCO3)c1`, the figure is 2.76; as for `COCc1nnc(NC(=O)CSc2ccccc2)s1`, -0.188; as for `CCn1c(C)nc2cc(C(=O)N=Nc3c(O)[nH]c4ccccc34)ccc21`, 0.0669.
With `O=C(NCc1ccco1)c1cccc(NS(=O)(=O)c2cccc(F)c2)c1` the figure was -0.114.
With `COc1ccc(/C=C/C(=O)N2CCCc3ccccc32)cc1` the figure was -0.682; with `COc1cc(NC(=O)Nc2cccc(Cl)c2)c(OC)cc1NC(=O)CN1CCCCC1`, 0.116.
In the case of `CCOc1nc(CC)nc(NC(=O)NS(=O)(=O)c2ccccc2Cl)n1`, the z-score was -0.0447.
With `CN(C)S(=O)(=O)c1cccc(NC(=O)c2cncc(Br)c2)c1` the figure was -0.0939; with `CCN(CC)S(=O)(=O)c1cccc(-c2nnc(SCCOc3ccccc3)o2)c1`, -0.281; with `O=C(CSc1nccn1-c1ccccc1)Nc1ccc2c(c1)OCO2`, -0.165.
As for `COc1ccccc1OCCN1C(=O)S/C(=C\c2ccco2)C1=O`, the figure is 0.387; as for `CCc1cc2c(=O)n3c(nc2s1)-c1[nH]c2ccc(OC)cc2c1CC3`, -0.132.
As for `CCOc1cc(/C=C/c2ccc3cccc([N+](=O)[O-])c3n2)ccc1O`, the figure is -0.315; as for `Cc1ccc(CSCCNS(C)(=O)=O)cc1`, 0.343.
For the compound `CCCCN(CC)CCNC(=O)c1cc2c(C)nc3ccccc3c2o1`, the z-score was -1.67.
Take `Cc1ccc(C(=O)NCC(=O)NCC(=O)OCc2ccc(Oc3ccc([N+](=O)[O-])cc3)cc2)cc1`: the z-score is -0.145.
As to `CCCn1c(=O)c2ccccc2n2c(SCCOc3ccccc3F)nnc12`, the z-score was -0.646.
With `O=C(/C=C/c1ccco1)N1CCN(c2ccccc2)CC1` the figure was -1.5; with `Cn1c(N2CCCC2)nc2c1c(=O)n(Cc1cccc(F)c1)c(=O)n2C`, 0.0047; with `Cc1cc(C(=O)Nc2ccc3c(c2)OCCO3)c(C)o1`, 0.31.
In the case of `C/C(Cn1nnc([N+](=O)[O-])n1)=N\NC(=O)c1ccccc1`, the z-score is 0.221.
As for `O=C(c1cccc(Cl)c1)N(Cc1cccs1)C1CCS(=O)(=O)C1` (stereo unspecified), the figure is 0.871; as for `O=C(CCS(=O)(=O)Cc1ccc(Cl)cc1)NCCCN1CCN(c2ccccc2F)CC1`, -0.0145.
As for `CCSc1nnc(NC(=O)c2csc3c2CCCC3)s1`, the figure is -0.196; as for `O=C(CSc1nnc(-c2cccnc2)n1CCc1ccccc1)NCc1ccccc1`, 0.0315.
As to `O=C(NCc1ccccn1)c1cc(-c2ccccc2)on1`, the z-score is -0.334.
With `COc1ccccc1C(=O)NCC(=O)OCc1ccc(Br)cc1` the figure was -0.718; with `Cc1cccc2cc(CN(Cc3ccco3)C(=O)c3cccs3)c(=O)[nH]c12`, -0.486.
`CCOC(=O)c1nn(-c2ccccc2C)c2nc(-c3ccc(C)cc3)c(C#N)c(=O)n12` gave a z-score of 0.0745.
With `CCC(C)[C@@H](C(=O)Nc1ccc(OC)c(OC)c1)N1Cc2ccccc2C1=O` (stereo partly specified), the z-score was determined as 0.226.
With `CN(C)CCOCCOc1ccccc1-c1ccccc1` the figure was -0.227; with `COc1cccc(NC(=O)Nc2c(C)n(C)n(-c3ccccc3)c2=O)c1`, -0.172; with `CCOC(=O)Cc1csc(NC(=O)c2c(O)c3ccccc3n(CC(C)C)c2=O)n1`, -0.46.
With `COc1ccc(NC(=O)COc2nc(N(C)C)nc(N(C)C)n2)cc1` the figure was 0.158; with `Cc1cc(Cl)ccc1OCC(=O)OC(C)C(=O)N(C)C` (stereo unspecified), -0.157.
As for `CSc1nc2ccc(NS(=O)(=O)c3ccc(Cl)s3)cc2s1`, the figure is -0.371; as for `O=C(O)Cc1cc2c(s1)CCCCC2`, 0.196.
Compound `CC(=O)Nc1ccc(OCC(O)CN2CCN(c3ccc(Cl)cc3)CC2)cc1` (stereo unspecified) gave a z-score of 0.132.
In the case of `CCc1ccc(/C=N/NC(=O)c2cc(C3CC3)nc3ccc(Br)cc23)s1`, the z-score was determined as 0.868.
